# From PubChem BioAssay AID488969 (Vanderbilt High Throughput Screening Facility, 2010)
# Over roughly 110,000 compounds, “z-score” has its median near -0.1; the highest 2% begin near 2. The list shows a part of the results. Active and inactive are the calls of the source.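 Rule for the calls: active = z-score in the third read window above 3 or below -3; inactive = the rest.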
# Target: Metabotropic glutamate receptor 8 (Rattus norvegicus) (UniProt P70579)
# Experiment: rat mGluR8 modulators via GIRK flux, primary screen, cell-based, thallium flux, HTS (AID 488969)
# Conditions: HEK293 rat mGluR8, GIRK (G protein-gated inwardly rectifying potassium channel) thallium flux, FluoZin2; at 10 µM; stronger effect = higher value; submaximal glutamate (EC20) added with thallium
# UniProt P70579, sequence (P70579 whole entry, looked up): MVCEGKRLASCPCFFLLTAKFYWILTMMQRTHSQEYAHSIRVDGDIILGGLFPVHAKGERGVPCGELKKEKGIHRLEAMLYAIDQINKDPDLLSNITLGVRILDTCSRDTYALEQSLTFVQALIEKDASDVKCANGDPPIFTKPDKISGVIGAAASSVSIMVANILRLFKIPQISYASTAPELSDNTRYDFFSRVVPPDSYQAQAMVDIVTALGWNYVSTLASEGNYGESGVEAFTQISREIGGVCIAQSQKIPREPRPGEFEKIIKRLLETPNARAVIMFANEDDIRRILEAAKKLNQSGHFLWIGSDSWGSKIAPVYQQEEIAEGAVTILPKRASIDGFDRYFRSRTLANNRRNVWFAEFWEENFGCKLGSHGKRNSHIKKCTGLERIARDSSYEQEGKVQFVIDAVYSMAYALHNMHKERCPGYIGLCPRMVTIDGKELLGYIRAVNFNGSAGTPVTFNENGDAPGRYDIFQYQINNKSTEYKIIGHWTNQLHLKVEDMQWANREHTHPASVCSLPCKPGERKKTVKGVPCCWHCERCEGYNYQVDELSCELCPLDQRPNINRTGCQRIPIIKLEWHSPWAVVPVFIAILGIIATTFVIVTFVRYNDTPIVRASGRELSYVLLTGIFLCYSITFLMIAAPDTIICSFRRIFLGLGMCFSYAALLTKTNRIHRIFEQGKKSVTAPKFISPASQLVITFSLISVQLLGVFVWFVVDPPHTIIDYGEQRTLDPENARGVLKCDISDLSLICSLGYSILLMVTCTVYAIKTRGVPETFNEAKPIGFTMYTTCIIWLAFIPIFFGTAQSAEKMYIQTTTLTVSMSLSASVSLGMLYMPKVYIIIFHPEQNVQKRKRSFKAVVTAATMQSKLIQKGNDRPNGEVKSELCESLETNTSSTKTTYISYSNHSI
row,Structure (SMILES),z-score
1,CCOC(=O)N1CCC(NC(=O)CCC(=O)N2CCOc3ccc(C)cc32)CC1,-0.724
2,CC1(C)CC(=O)c2sc(N)nc2C1,-0.129
3,CNC(=O)/C(C#N)=C/c1c(F)cccc1Cl,-0.361
4,O=C1CC(N2CCCCCC2)C(=O)N1c1ccc2c(c1)OCO2 (stereo not drawn),0.0652
5,CCOC(=O)c1cc2n(c1/N=C/N(C)C)-c1ccccc1C2=O,-0.437
6,CC(=O)c1ccc(NC(=O)CSc2nnc(-c3ccoc3C)n2Cc2ccccc2)cc1,-0.586
7,Cc1ccc2nc(NC(=O)COC(=O)c3ccc(Br)o3)sc2c1,-0.114
8,COc1ccc(CCNS(=O)(=O)c2cccc(C(=O)O)c2)cc1OC,-0.0663
9,C=CCn1c(=S)[nH]c2ccccc2c1=O,active: 13.6
10,COC(=O)c1c(-c2cccs2)csc1NC(=O)CSc1ncnc2sc(C)c(C)c12,-0.00287
11,CCCC(=O)C1=C(O)C(C(=O)OC)C(C)(C)CC1=Nc1ccccc1 (stereo not drawn),-0.891
12,O=C(N/N=C/c1cc(Br)ccc1O)Nc1ccccc1,0.2
13,c1ccc(Cn2ccc(-c3cnc(-c4ccccc4)s3)n2)cc1,-0.513
14,CCOC(=O)c1c(C)[nH]c(C)c1C(=O)CSc1ncccn1,0.177
15,Cc1c(C(=O)OCC(=O)N(CCC#N)c2ccccc2)oc2c1ccc1ccccc12,0.501
16,COc1ccc2cc(-c3cc(C(=O)OCC(=O)NC4CCS(=O)(=O)C4)c4ccccc4n3)ccc2c1 (stereo not drawn),-0.0649
17,CCOC(=O)Cn1c(CCC(=O)O)ccc1-c1ccc(F)cc1,-0.273
18,COc1cccc(NC(=O)C2CC2(c2cccc(OC)c2)c2cccc(OC)c2)c1 (stereo not drawn),-0.0635
19,CCOC(=O)C(NC(C)=O)(NS(=O)(=O)c1ccccc1)C(F)(F)F (stereo not drawn),0.17
20,CC(C)CN1C(=O)c2ccc(NC(=O)c3ccccc3F)cc2C1=O,-0.316
21,COc1cc(NC(=O)C(C)Oc2ccccc2)c(C(=O)O)cc1OC (stereo not drawn),-1.95
22,Oc1ccccc1CNc1ccc(Br)cn1,active: 5.86
23,CC(C)N(Cc1nc(-c2ccccc2)no1)C(=O)CN(C)S(=O)(=O)c1ccc(Br)cc1,-0.222

row,Structure (SMILES),z-score
1,CCOC(=O)c1[nH]c2cc(OC)c(OC)cc2c1NC(=O)CN1CCN(C)CC1,-0.276
2,Cn1c(N2CCC(C(N)=O)CC2)nc2c1c(=O)n(Cc1ccc(Cl)cc1)c(=O)n2C,-0.154
3,COc1cc(Br)c(C(C)NC(=O)c2ccc(C)cc2)cc1OC (stereo not drawn),0.0238
4,CN(C)CCNC(=O)Nc1cccc(Cl)c1Cl,-0.0247
5,CCCCn1c(-c2cc(Cl)ccc2OC)n[nH]c1=S,-0.132
6,NC(=O)C1CCN(C(=O)Cn2cccc2C(=O)c2ccccc2)CC1,-0.256
7,COc1ccc(Cl)cc1C(=O)Nc1nnn(C)n1,0.00102
8,CC(C)(C)c1cc(CN2CCCC(O)C2)c(O)c(C(C)(C)C)c1 (stereo not drawn),-0.11
9,CCC(C)NCCOc1ccc(Br)cc1 (stereo not drawn),0.896
10,CC(C)(C)NC(=S)NCCc1ccccc1,-0.166
11,CCCc1cc(C(=O)N2CCN(c3ccccc3C)CC2)cs1,0.332
12,Cc1nc2cc(NC(=O)COc3ccccc3C#N)ccc2n1-c1ccccc1,-0.137
13,Cc1cc(=O)[nH]c(SCC(=O)c2c(N)n(C)c(=O)n(C)c2=O)n1,0.229
14,CCc1nnc(NC(=O)CSc2nnc(Cc3ccccc3)n2-c2ccc(OC)cc2)s1,-0.238
15,N#CCCCSc1nnc(CSc2nc3ccccc3s2)n1-c1ccccc1,-0.337
16,COc1ccc2[nH]c(=O)c(CN(Cc3ccc(C)cc3)Cc3nnnn3CC3CCCO3)cc2c1 (stereo not drawn),-0.39
17,CC1=C(C#N)C(c2cccnc2)C2=C(CCCC2=O)N1 (stereo not drawn),0.29
18,O=C(Cn1c(CN2CCCCC2)nc2ccccc2c1=O)NC1CCCCC1,-0.467
19,COc1cc(SC#N)ccc1N=Cc1c(C)[nH]n(-c2ccc(C)cc2C)c1=O,-0.204
20,COc1ccc(NC(=O)CSc2ccc(-c3ccccn3)nn2)cc1OC,-0.397
21,COC(=O)c1c(NC(=O)c2cccs2)sc2c1CCC(C)C2 (stereo not drawn),-0.363
22,COc1ccc(/C(C)=C2\SC(=S)N(CCC(=O)O)C2=O)cc1,-0.117
23,Cc1cc(C)n(-c2ccc(C(=O)OCC(=O)NCc3ccc(Cl)cc3)cc2)n1,-0.0509

row,Structure (SMILES),z-score
1,CCSc1nnc(NC(=O)COc2ccc3ccccc3c2)s1,0.705
2,O=C(NCc1ccncc1)c1cnccn1,1.06
3,Cc1nc2ccccn2c1C(=O)NN=C1C2CC3CC(C2)CC1C3,-0.259
4,C=CCNC(=O)c1ccccc1S(=O)c1ccccc1C#N (stereo not drawn),-0.0548
5,O=C(NNC(=O)[C@@H]1CCCC[C@@H]1C(=O)O)Nc1ccccc1,-0.216
6,CC(Sc1ccccc1)C(=O)Nc1ccccc1C(=O)N1CCOCC1 (stereo not drawn),-1.59
7,COC(=O)C(CC(C)C)NC(=O)CNC(=O)c1ccccc1C (stereo not drawn),-0.309
8,COc1ccc(C2N(S(=O)(=O)c3ccccc3)CCN2S(=O)(=O)c2ccc(C)cc2)cc1 (stereo not drawn),-0.159
9,O=C(Nc1nccs1)c1ccccc1[N+](=O)[O-],0.0807
10,CC(=O)c1ccc(OCCCN2CCCCC2)cc1,0.547
11,Cc1cccc(N(CC(=O)NCc2ccc3c(c2)OCO3)C(=O)CCC(=O)Nc2ccccn2)c1,-0.254
12,COc1ccc(NC(=O)N2CCCC2C(=O)NCc2ccc(F)cc2)cc1 (stereo not drawn),0.0229
13,CCC(C)(C(=O)NC1CCCC1)N(Cc1cccs1)C(=O)Cc1cccs1 (stereo not drawn),-1.17
14,CCCCCCCCc1nnc(NC(=O)c2ccco2)s1,0.0845
15,O=C(NC(=S)NCc1ccccc1)C1CCCCC1,-0.483
16,Cc1ccnc(NC(=O)c2sc3ccccc3c2Cl)c1,-0.115
17,COCCSc1ccccc1C(=O)Nc1cccnc1,-0.219
18,Cn1c(=O)c2c(ncn2CC(=O)Nc2ccc(Cl)cc2Cl)n(C)c1=O,-0.103
19,CC(C)(C)C(=O)Nc1ncc(C(F)(F)F)cc1Cl,-0.133
20,CC(=O)Nc1ccc([N+](=O)[O-])cn1,-0.229
21,CCOC(=O)CSc1nnc(-c2ccco2)n1-c1ccccc1,-1.24
22,COc1ccc(-c2noc(-c3ccccc3-c3ccccc3)n2)cc1,-0.457
23,CSc1nccc(Oc2ccc(C#N)cc2)n1,-0.172

row,Structure (SMILES),z-score
1,COc1ccccc1NC(=O)CSc1nnc(C)o1,0.274
2,CC(=O)N1CCc2cc(S(=O)(=O)NCCCOC(C)C)ccc21,-0.446
3,O=C(Nc1ncn[nH]1)C(F)(F)C(F)F,0.119
4,COC(=O)c1c(CCl)noc1C(=O)NCC1CCCO1 (stereo not drawn),0.0146
5,O=C(Nc1nccs1)c1ccc(Cl)c(S(=O)(=O)N2CCCCC2)c1,0.824
6,COc1ccc(CC(=O)NNC(=O)c2ccc(SCc3cc(F)ccc3F)c([N+](=O)[O-])c2)cc1,-0.293
7,COc1cccc(N2CCN(CC(=O)c3c[nH]c4ccc(OC)cc34)CC2C)c1 (stereo not drawn),0.109
8,Cc1ccc2[nH]cc(C(=O)CN3CCN(c4ccccc4F)CC3)c2c1,-0.0337
9,CC1(C)CC(=O)C(C=NCCCO)=C(O)C1,0.107
10,CCCn1c(=S)[nH]c2cc(C(=O)N3CCc4ccccc43)ccc2c1=O,1.07
11,CC1CCN(c2nc3ccc(C(=O)N4CCN(Cc5ccc6c(c5)OCO6)CC4)cc3s2)CC1,0.103
12,COc1ccc2nc(SCC(=O)Nc3cc(C)on3)[nH]c2c1,-0.465
13,NS(=O)(=O)c1ccc(N/N=C/c2cn(-c3ccccc3)nc2-c2cccs2)cc1,0.229
14,Cc1cc2c(c(=O)n1C1CC1)C(c1cccc(Cl)c1)C(C#N)=C(N)O2 (stereo not drawn),-0.179
15,CCn1c(=O)c2cc(C(=O)N3CCN(C)CC3)sc2c2ccccc21,-1.56
16,Cc1ccc(NC(=O)c2ccc(NCCc3ccccc3)c([N+](=O)[O-])c2)cc1F,0.227
17,COc1ccccc1NS(=O)(=O)c1ccc2oc(SC3CCOC3=O)nc2c1 (stereo not drawn),-1.2
18,N#Cc1ccc(OCC(=O)Nc2ccccc2NS(=O)(=O)c2cccs2)cc1,-0.0156
19,CCOC(=O)C1CCN(Cc2ccc(F)c(F)c2)CC1,-0.221
20,Cc1cc(NC(=O)C(C)C)ncc1NC(=O)c1cccc(F)c1,0.905
21,O=C(c1cccnc1)N1CCN(S(=O)(=O)c2ccc3ccccc3c2)CC1,-0.122
22,COc1nc(-c2ccc(C)cc2)ccc1-c1noc(-c2ccco2)n1,-0.536
23,Cc1cccc(NS(=O)(=O)c2ccc(Oc3ccccc3)cc2)n1,-0.567

row,Structure (SMILES),z-score
1,COc1cc(C)c(Cl)cc1S(=O)(=O)n1ccnc1C,1.18
2,C=CCn1c(Oc2ccc(C(=O)OC)cc2)nc2c1c(=O)n(C)c(=O)n2C,0.0145
3,O=C(Cc1c(F)cccc1Cl)NCCCn1ccnc1,0.869
4,CCCC(=O)Nc1ccc(-c2nc3cc(C)c(C)cc3o2)cc1,0.343
5,Cn1c(CSCc2ccccc2Cl)nnc1SCC(=O)Nc1nccs1,-1.21
6,CCOC(=O)c1ccccc1NC(=O)c1ccc(Cl)c(S(=O)(=O)N2CCOCC2)c1,0.0847
7,CCn1cc(C(=O)NCC2CCCO2)c(=O)c2cc(S(=O)(=O)N3CCC(C)CC3)ccc21 (stereo not drawn),-0.915
8,Nc1nonc1C(=O)N/N=C/c1ccc(-c2cccc([N+](=O)[O-])c2)o1,-0.301
9,Cc1cc(C(=O)N/N=C/c2cccn2C)no1,0.00854
10,O=C(COC(=O)CCC(=O)c1cccs1)Nc1cccc(S(=O)(=O)N2CCOCC2)c1,-0.252
11,CCOC(=O)C1=C(CSCc2ccccc2)NC(=O)NC1c1cc(C)ccc1C (stereo not drawn),0.201
12,COc1cc(/C=N/NC(=O)c2nc(-c3ccccc3)n(-c3ccccc3)n2)ccc1O,-0.407
13,CCN(CC)C(=O)CN(c1cccc(C(F)(F)F)c1)S(C)(=O)=O,-0.133
14,Cc1ccc(C(=O)CCC2CCCCC2=O)cc1 (stereo not drawn),0.502
15,O=C(NCCN1CCOCC1)c1cc2ccccc2o1,0.127
16,CC1Cc2nc(SCC(=O)Nc3ccc4c(c3)OCO4)n(Cc3ccccc3)c(=O)c2S1 (stereo not drawn),-0.563
17,Cc1cccc(-n2c(C)cc(C=C(C#N)C#N)c2C)c1,-0.509
18,CCN(CC)C(C)C(=O)NCC1(c2ccccc2)CCOCC1 (stereo not drawn),-0.0652
19,O=C(Cn1cnc2c(cnn2-c2ccccc2)c1=O)c1ccc(Cl)cc1,0.339
20,CCCn1nnc(NC(=O)COc2ccc(CC)cc2)n1,-0.0151
21,CN1C(=O)NC(NC(=O)C2CCCCC2)(C(F)(F)F)C1=O (stereo not drawn),-0.749
